# Experimental data from the supplement of paper PMC8728848.
# Some of the results follow.
# What was measured:
# Assay in all cases: glycan array binding signal (z-score within array); higher = stronger binding
# Conditions in all cases: glycan notation: IUPAC condensed, linker removed
# [1] = biological target: Neu5Ac(a2-3)Gal(b1-4)GlcNAc(b1-3)[Neu5Ac(a2-3)Gal(b1-4)GlcNAc(b1-6)]GalNAc
# How it was run: (§1)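 The binding signal is a Z-score computed within each array. Data were drawn from 3228 arrays in the Consortium for Functional Glycomics database, restricted to those with a known protein sequence. Scores were averaged over arrays of the same protein sequence at different concentrations or buffers, and over linkers, and negative values can be taken as non-binding.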
# [2] = biological target: Neu5Ac(a2-3)Gal(b1-4)GlcNAc(b1-6)GalNAc
# How it was run: as §1
# [3] = biological target: Neu5Ac(a2-3)Gal(b1-4)GlcNAc(b1-6)[Gal(b1-3)]GalNAc
# How it was run: as §1
# [4] = biological target: Neu5Ac(a2-3)Gal(b1-4)GlcNAc(b1-6)[Neu5Ac(a2-3)Gal(b1-3)]GalNAc
# How it was run: as §1
# [5] = biological target: Neu5Ac(a2-3)Gal(b1-4)GlcNAc6S
# How it was run: as §1
# [6] = biological target: Neu5Ac(a2-3)Gal(b1-4)[Fuc(a1-3)]GlcNAc
# How it was run: as §1
# [7] = biological target: Neu5Ac(a2-3)Gal(b1-4)[Fuc(a1-3)]GlcNAc(b1-2)Man
# How it was run: as §1
# [8] = biological target: Neu5Ac(a2-3)Gal(b1-4)[Fuc(a1-3)]GlcNAc(b1-3)Gal
# How it was run: as §1
# [9] = biological target: Neu5Ac(a2-3)Gal(b1-4)[Fuc(a1-3)]GlcNAc(b1-3)Gal(b1-4)GlcNAc
# How it was run: as §1
# [10] = biological target: Neu5Ac(a2-3)Gal(b1-4)[Fuc(a1-3)]GlcNAc(b1-3)Gal(b1-4)[Fuc(a1-3)]GlcNAc(b1-3)Gal(b1-4)[Fuc(a1-3)]GlcNAc
# How it was run: as §1
# [11] = biological target: Neu5Ac(a2-3)Gal(b1-4)[Fuc(a1-3)]GlcNAc(b1-3)GalNAc
# How it was run: as §1
# [12] = biological target: Neu5Ac(a2-3)Gal(b1-4)[Fuc(a1-3)]GlcNAc(b1-6)[Gal(b1-3)]GalNAc
# How it was run: as §1
# [13] = biological target: Neu5Ac(a2-3)Gal(b1-4)[Fuc(a1-3)]GlcNAc(b1-6)[Neu5Ac(a2-3)Gal(b1-3)]GalNAc
# How it was run: as §1
# [14] = biological target: Neu5Ac(a2-3)Gal(b1-4)[Fuc(a1-3)]GlcNAc6S
# How it was run: as §1
# [15] = biological target: Neu5Ac(a2-3)Gal6S(b1-4)GlcNAc
# How it was run: as §1
# [16] = biological target: Neu5Ac(a2-3)Gal6S(b1-4)[Fuc(a1-3)]GlcNAc
# How it was run: as §1
# [17] = biological target: Neu5Ac(a2-3)GalNAc
# How it was run: as §1
# [18] = biological target: Neu5Ac(a2-3)GalNAc(b1-4)GlcNAc
# How it was run: as §1
# [19] = biological target: Neu5Ac(a2-3)[GalNAc(b1-4)]Gal(b1-4)Glc
# How it was run: as §1
# [20] = biological target: Neu5Ac(a2-3)[GalNAc(b1-4)]Gal(b1-4)GlcNAc
# How it was run: as §1
# [21] = biological target: Neu5Ac(a2-3)[GalNAc(b1-4)]Gal(b1-4)GlcNAc(b1-3)GalNAc
# How it was run: as §1
# [22] = biological target: Neu5Ac(a2-3)[Neu5Ac(a2-6)]GalNAc
# How it was run: as §1
# [23] = biological target: Neu5Ac(a2-6)Gal
# How it was run: as §1
# [24] = biological target: Neu5Ac(a2-6)Gal(b1-3)GlcNAc(b1-3)[Gal(b1-4)GlcNAc(b1-6)]Gal(b1-4)Glc
# How it was run: as §1
# [25] = biological target: Neu5Ac(a2-6)Gal(b1-4)Glc
# How it was run: as §1
# [26] = biological target: Neu5Ac(a2-6)Gal(b1-4)GlcNAc
# How it was run: as §1
# [27] = biological target: Neu5Ac(a2-6)Gal(b1-4)GlcNAc(b1-2)Man
# How it was run: as §1
# [28] = biological target: Neu5Ac(a2-6)Gal(b1-4)GlcNAc(b1-2)Man(a1-3)Man(b1-4)GlcNAc(b1-4)GlcNAc
# How it was run: as §1
# [29] = biological target: Neu5Ac(a2-6)Gal(b1-4)GlcNAc(b1-2)Man(a1-3)[Gal(b1-4)GlcNAc(b1-2)Man(a1-6)]Man(b1-4)GlcNAc(b1-4)GlcNAc
# How it was run: as §1
# [30] = biological target: Neu5Ac(a2-6)Gal(b1-4)GlcNAc(b1-2)Man(a1-3)[GlcNAc(b1-2)Man(a1-6)]Man(b1-4)GlcNAc(b1-4)GlcNAc
# How it was run: as §1
# [31] = biological target: Neu5Ac(a2-6)Gal(b1-4)GlcNAc(b1-2)Man(a1-3)[GlcNAc(b1-4)][Neu5Ac(a2-6)Gal(b1-4)GlcNAc(b1-2)Man(a1-6)]Man(b1-4)GlcNAc(b1-4)GlcNAc
# How it was run: as §1
binder,measurement,setting,value
Epa1to9 (Candida glabrata) (protein) MGSSHHHHHHSSGLVPRGSHMTSSNDISLASKDPTTFPLGCSPDITTPKKGLSMELYSYDFRKKGSYPCWDAAYLDPNYPRTGYKSHRLLAKVDGVTGNINFYYHATKGCTPQLGHLPASYNYPKPLTMTNFTMLLYGYFRPKVTGFHTFTISADDLLFVNFGAGNAFDCCRRDSSADHFGNYQAYAIWGSKTAKDELTVHLDAGVYYPIRLFYNNRDYHGALSFTFKTESNENTVSDFSEYFFSLDDTEEGCPGLISYD,glycan array binding signal (z-score),[1],-0.351
same,glycan array binding signal (z-score),[2],-0.344
same,glycan array binding signal (z-score),[3],0.787
same,glycan array binding signal (z-score),[4],-0.321
same,glycan array binding signal (z-score),[5],-0.33
same,glycan array binding signal (z-score),[6],-0.343
same,glycan array binding signal (z-score),[7],-0.355
same,glycan array binding signal (z-score),[8],-0.342
same,glycan array binding signal (z-score),[9],-0.255
same,glycan array binding signal (z-score),[10],-0.328
same,glycan array binding signal (z-score),[11],-0.109
same,glycan array binding signal (z-score),[12],-0.061
same,glycan array binding signal (z-score),[13],-0.283
same,glycan array binding signal (z-score),[14],-0.36
same,glycan array binding signal (z-score),[15],-0.294
same,glycan array binding signal (z-score),[16],-0.352
same,glycan array binding signal (z-score),[17],-0.353
same,glycan array binding signal (z-score),[18],-0.358
same,glycan array binding signal (z-score),[19],-0.349
same,glycan array binding signal (z-score),[20],-0.346
same,glycan array binding signal (z-score),[21],-0.35
same,glycan array binding signal (z-score),[22],-0.358
same,glycan array binding signal (z-score),[23],-0.254
same,glycan array binding signal (z-score),[24],0.001
same,glycan array binding signal (z-score),[25],-0.309
same,glycan array binding signal (z-score),[26],-0.273
same,glycan array binding signal (z-score),[27],-0.348
same,glycan array binding signal (z-score),[28],-0.345
same,glycan array binding signal (z-score),[29],-0.246
same,glycan array binding signal (z-score),[30],-0.32
same,glycan array binding signal (z-score),[31],-0.334
